Among all 310,000 compounds or so, about 2,200 (0.71%) showed an effect of 50% or more. Effects have a minus sign here. The list shows a part of the results.

human ether-à-go-go-related gene (hERG) potassium channel, sequence (Q12809 whole entry, looked up): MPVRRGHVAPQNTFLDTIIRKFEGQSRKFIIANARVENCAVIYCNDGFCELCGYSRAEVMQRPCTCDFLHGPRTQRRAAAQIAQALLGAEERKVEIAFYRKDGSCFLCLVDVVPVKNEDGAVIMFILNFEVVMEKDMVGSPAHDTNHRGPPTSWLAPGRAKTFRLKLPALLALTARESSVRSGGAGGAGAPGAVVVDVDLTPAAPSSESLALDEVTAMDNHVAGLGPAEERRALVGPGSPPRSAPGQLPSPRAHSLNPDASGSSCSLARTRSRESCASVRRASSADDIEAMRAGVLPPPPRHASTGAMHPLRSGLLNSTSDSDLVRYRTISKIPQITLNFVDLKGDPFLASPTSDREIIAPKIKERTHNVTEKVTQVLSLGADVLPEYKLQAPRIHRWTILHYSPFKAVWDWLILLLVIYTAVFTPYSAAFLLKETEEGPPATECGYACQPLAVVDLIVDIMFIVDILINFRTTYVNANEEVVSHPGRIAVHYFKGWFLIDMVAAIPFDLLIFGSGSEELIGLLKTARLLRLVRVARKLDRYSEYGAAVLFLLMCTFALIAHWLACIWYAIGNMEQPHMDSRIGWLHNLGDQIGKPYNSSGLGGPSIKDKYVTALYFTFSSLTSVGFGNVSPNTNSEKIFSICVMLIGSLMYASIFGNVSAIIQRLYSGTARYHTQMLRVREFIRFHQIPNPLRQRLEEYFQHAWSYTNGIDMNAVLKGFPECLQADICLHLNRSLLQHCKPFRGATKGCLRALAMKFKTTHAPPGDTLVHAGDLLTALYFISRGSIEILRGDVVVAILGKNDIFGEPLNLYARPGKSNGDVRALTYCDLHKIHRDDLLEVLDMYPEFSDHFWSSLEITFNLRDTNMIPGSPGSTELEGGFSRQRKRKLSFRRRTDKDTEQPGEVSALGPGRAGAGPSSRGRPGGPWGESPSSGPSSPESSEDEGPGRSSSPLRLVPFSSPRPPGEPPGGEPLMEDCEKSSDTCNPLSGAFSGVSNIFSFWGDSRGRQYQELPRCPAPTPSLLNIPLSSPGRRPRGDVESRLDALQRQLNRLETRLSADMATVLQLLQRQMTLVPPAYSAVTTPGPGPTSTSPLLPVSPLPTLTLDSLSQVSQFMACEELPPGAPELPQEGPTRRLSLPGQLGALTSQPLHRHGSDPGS

The test addresses human ether-à-go-go-related gene (hERG) potassium channel (human, UniProt Q12809). The test can be described thus: primary screen, population patch clamp on CHO cells stably expressing hERG.
Regarding `Cc1ccc(CS(=O)Cc2ccc(C(=O)N3CCN(c4ccccn4)CC3)o2)cc1` (stereo not shown), the “hERG current change (%, negative = inhibition) at 1uM” value is recorded as 3.2%.

For `c1ccc(-c2cncn2-c2ccccc2)cc1`, the “hERG current change (%, negative = inhibition) at 1uM” value came to 2.43%.

In the case of `O=C(Nc1nc2c(s1)CCCC2)c1cccs1`, the “hERG current change (%, negative = inhibition) at 1uM” value was 6.91%.

Consider `On1c(-c2ccccc2Cl)nc2ccccc21`, for which the “hERG current change (%, negative = inhibition) at 1uM” value was 9.77%.

In the case of `CC(C)(C)c1ccc(N2C(=O)CC(C/C=C/c3ccccc3)C2=O)cc1` (stereo not shown), the “hERG current change (%, negative = inhibition) at 1uM” value came to 12.1%.

Turning to `Cc1cccc(C)c1OCc1nc2ccccc2[nH]1`, the “hERG current change (%, negative = inhibition) at 1uM” value is -2.81%.

As to `CCN(CC)c1ccc(/C=C/C(=O)C2C(=O)C=C(C)OC2=O)cc1` (stereo not shown), the “hERG current change (%, negative = inhibition) at 1uM” value turned out to be 2.77%.

`CCOC(=O)c1c(NC(=O)c2ccc(N3C(=O)[C@@H]4[C@H](C3=O)[C@H]3C=C[C@@H]4C3)cc2)sc2c1CC(C)CC2` (stereo partly shown): the “hERG current change (%, negative = inhibition) at 1uM” value was 14.2%.

Take `CSC(=NC#N)N1CCN(c2cccc(Cl)c2)CC1`: the “hERG current change (%, negative = inhibition) at 1uM” value is recorded as -0.195%.

Regarding `COc1ccc(-c2cc(C(=O)NCc3ccco3)c3ccccc3n2)c(OC)c1`, the “hERG current change (%, negative = inhibition) at 1uM” value is listed as 9.25%.

Take `Cc1ccc(N=Nc2c(C)[nH][nH]c2=O)c(C)c1`: the “hERG current change (%, negative = inhibition) at 1uM” value is on record as 11.4%.

For `CCOc1ccc(S(=O)(=O)Nc2nc3ccccc3nc2-n2ccc(=NC(=O)c3cccs3)cc2)cc1`, the “hERG current change (%, negative = inhibition) at 1uM” value was found to be 13.8%.

`Nc1ccccc1SC(C[N+](=O)[O-])c1ccccc1` (stereo not shown): the “hERG current change (%, negative = inhibition) at 1uM” value turned out to be 12%.

With `CC(Sc1nc2ccccc2c(=O)n1CCc1ccc(S(N)(=O)=O)cc1)C(=O)NC(N)=O` (stereo not shown), the “hERG current change (%, negative = inhibition) at 1uM” value is reported as 12.3%.

For the compound `Cc1ccc2cc(CN(Cc3ccco3)C(=O)c3ccco3)c3nnnn3c2c1`, the “hERG current change (%, negative = inhibition) at 1uM” value stood at 8.58%.

`CCOc1ccc(C2NC(=O)NC(c3ccccc3)=C2C(C)=O)cc1OC` (stereo not shown): the “hERG current change (%, negative = inhibition) at 1uM” value was determined as 14.7%.

With `Cc1ccc(S(=O)(=O)n2nc(OC(=O)c3ccccc3C)cc2N)cc1`, the “hERG current change (%, negative = inhibition) at 1uM” value came to 12.9%.

For `COc1ccc(/C=C(/C#N)C(=O)Nc2ccc(C)cc2C)cc1C(=O)O`, the “hERG current change (%, negative = inhibition) at 1uM” value is reported as 14.9%.

For the compound `Cc1cccc(NC(=O)CSCC(=O)N(C)Cc2ccc(Cl)c(Cl)c2)c1`, the “hERG current change (%, negative = inhibition) at 1uM” value was 10.7%.

Consider `Cc1ccc(Cl)cc1N1CCN(C(=O)c2ccc(NS(=O)(=O)c3c(C)noc3C)cc2)CC1`, for which the “hERG current change (%, negative = inhibition) at 1uM” value was found to be 16.7%.

For the compound `CCN(CC)S(=O)(=O)c1ccc(N2CCN(c3ccccc3OC)CC2)c(N)c1`, the “hERG current change (%, negative = inhibition) at 1uM” value stood at 16.2%.

As for `C/C(=C/c1ccccc1)C(=O)N1CCN(c2ccccc2F)CC1`, the “hERG current change (%, negative = inhibition) at 1uM” value came to 9.85%.

As to `CCCCCCCCCOC(=O)C(CC(=O)O)N1CCOCC1` (stereo not shown), the “hERG current change (%, negative = inhibition) at 1uM” value was 6.42%.

In the case of `Cc1nc(N)nc(OCC(F)(F)C(F)F)c1Br`, the “hERG current change (%, negative = inhibition) at 1uM” value is listed as 7.01%.

As to `COc1ccc(C(=O)Nc2ccc(F)cc2F)cc1`, the “hERG current change (%, negative = inhibition) at 1uM” value was -0.387%.

In the case of `COC(=O)c1sccc1NC(=O)Nc1cccc(F)c1`, the “hERG current change (%, negative = inhibition) at 1uM” value is 9.69%.

Turning to `COc1ccccc1C(=O)NC(=O)COC(=O)c1nc2nc(C)cc(C)n2n1`, the “hERG current change (%, negative = inhibition) at 1uM” value came to 15.7%.

For `CCCN1CCN(c2ccc(S(N)(=O)=O)cc2[N+](=O)[O-])CC1`, the “hERG current change (%, negative = inhibition) at 1uM” value was -11%.

In the case of `CCOC(=O)N1CCN(Cc2nc(N)nc(Nc3ccc(Cl)cc3)n2)CC1`, the “hERG current change (%, negative = inhibition) at 1uM” value was -22.7%.

As to `O=S(=O)(c1cccc(F)c1)N1CCC(CO)(Cc2cccc(F)c2)CC1`, the “hERG current change (%, negative = inhibition) at 1uM” value is given as -24.8%.

For `O=C(COC(=O)C1C2CC3OC(=O)C1C3C2)Nc1ccc(Br)cc1` (stereo not shown), the “hERG current change (%, negative = inhibition) at 1uM” value amounted to 6.73%.

With `CN1C(=O)NC(NC(=O)C2CCCCC2)(C(F)(F)F)C1=O` (stereo not shown), the “hERG current change (%, negative = inhibition) at 1uM” value is reported as 9.52%.

In the case of `N#Cc1c2ccccc2nc2ccccc12`, the “hERG current change (%, negative = inhibition) at 1uM” value turned out to be 9.93%.

As to `O=C(Nc1ccc(Cl)cc1)Nc1ccc(S(=O)(=O)Nc2ncccn2)cc1`, the “hERG current change (%, negative = inhibition) at 1uM” value was 9.16%.

Turning to `Oc1cc2c(cc1O)C1c3ccc(O)c(O)c3OCC1(O)C2` (stereo not shown), the “hERG current change (%, negative = inhibition) at 1uM” value turned out to be 14%.

Regarding `Cn1cnnc1SCc1ccccc1`, the “hERG current change (%, negative = inhibition) at 1uM” value is 4.5%.

Take `O=C(N/N=C/c1cccs1)c1ccc(NC(=O)c2ccccc2Cl)cc1`: the “hERG current change (%, negative = inhibition) at 1uM” value is recorded as 9.41%.

For the compound `O=C(Nc1ccc(C(F)(F)F)cc1)c1ccccc1-n1cnnn1`, the “hERG current change (%, negative = inhibition) at 1uM” value is given as 2.21%.

As for `O=C1c2cccc(Cl)c2C(=O)N1c1ccccn1`, the “hERG current change (%, negative = inhibition) at 1uM” value is on record as 15.5%.

For `COc1ccc(NC(=O)CCSc2ccc(C)cc2)cc1`, the “hERG current change (%, negative = inhibition) at 1uM” value is listed as 0.943%.

Take `Br.Cc1nc(-c2ccc(C(=O)O)cc2)cs1`: the “hERG current change (%, negative = inhibition) at 1uM” value is recorded as 13.2%.

Consider `CC(=O)c1cc2c(cc1NC(=O)CN1CCCCC1C)OCO2.O=C(O)C(=O)O` (stereo not shown), for which the “hERG current change (%, negative = inhibition) at 1uM” value was 6.36%.

On to `COC(=O)C1CN(C(=O)C(C)Oc2ccc(C)c(C)c2)c2ccccc2O1` (stereo not shown), for which the “hERG current change (%, negative = inhibition) at 1uM” value came to 0.293%.

For the compound `COc1cccc(NC(=O)CSc2nnc(COc3ccc4c(c3)CCCC4)o2)c1`, the “hERG current change (%, negative = inhibition) at 1uM” value stood at 10.9%.

Turning to `CCOC(=O)c1c(Nc2ccccc2N)cc(C)nc1C`, the “hERG current change (%, negative = inhibition) at 1uM” value is given as -6.12%.

Consider `CCCN(CCC)C(=O)c1cc2c(=O)[nH]c3ccc(C)cc3c2s1`, for which the “hERG current change (%, negative = inhibition) at 1uM” value was found to be 4.93%.

With `O=C(CCC(=O)OCc1cccc([N+](=O)[O-])c1)Nc1ccc(F)cc1`, the “hERG current change (%, negative = inhibition) at 1uM” value stood at 5.58%.

As to `COC(=O)C1=C(C)N(CCCC(=O)O)C(=O)NC1c1ccc([N+](=O)[O-])cc1` (stereo not shown), the “hERG current change (%, negative = inhibition) at 1uM” value was determined as 9.22%.

On to `COC(=O)c1cc(S(=O)(=O)Nc2c(C)cccc2C)cn1C`, for which the “hERG current change (%, negative = inhibition) at 1uM” value turned out to be 7.76%.

As for `CCCCN(Cc1ccccc1)c1ncnc2nc[nH]c12`, the “hERG current change (%, negative = inhibition) at 1uM” value worked out at 9.29%.

Regarding `OCCC1CN(Cc2cccn2-c2ccccn2)CCN1C1CCCCC1` (stereo not shown), the “hERG current change (%, negative = inhibition) at 1uM” value is -15.6%.

For `NC(=O)COc1cccc2cccnc12`, the “hERG current change (%, negative = inhibition) at 1uM” value was found to be 10.8%.

`COc1ccc2oc(=O)c(C(=O)NCc3ccc4c(c3)OCO4)cc2c1`: the “hERG current change (%, negative = inhibition) at 1uM” value is 15.6%.

As for `O=C(C[n+]1ccccc1)N/N=C/c1ccc(Cl)cc1.[Cl-]`, the “hERG current change (%, negative = inhibition) at 1uM” value is 3.27%.

Consider `CCCC(=O)Nc1ccc2c(c1)nc(CN1CCN(C(=O)OCC)CC1)n2CC`, for which the “hERG current change (%, negative = inhibition) at 1uM” value worked out at 15.5%.

Regarding `O=C(NCc1ccccc1)c1cc(-c2ccncc2)nc2ccccc12`, the “hERG current change (%, negative = inhibition) at 1uM” value is -0.566%.

As for `COc1cc(CC(=O)N2C[C@H]3C[C@@H](C2)c2cccc(=O)n2C3)cc(OC)c1OC`, the “hERG current change (%, negative = inhibition) at 1uM” value is recorded as 9.36%.

For `O=C(NNC(=O)c1ccc2[nH]c(=O)c(=O)[nH]c2c1)c1cccc(Br)c1`, the “hERG current change (%, negative = inhibition) at 1uM” value is given as 15.5%.

(Values after publication PMC4336329 (PLoS ONE, 2015).)
